One may read the IC50 as the concentration at which inhibition is half-maximal.

Lines with a small IC50 respond at low doses; a limit (>, <) means that the fit lies beyond the doses tested. For AUC the same curve is integrated over the 256-fold range of doses and scaled to a fraction; values near 1 show little effect. For some assays here: Any top dose called inferred comes from the curve model; the source does not state it. For some assays here: Where an entry number is given, a second screen of the drug exists; the two often differ.

We go through seven cell lines from the supplement of paper PMC4967469.

Common to all, as to assay: Viability of human cancer cell lines after 72 h of drug (GDSC screen)
Compound in test [1]: C#Cc1cccc(Nc2ncnc3cc(OC)c(OCCCCCCC(=O)NO)cc23)c1 [CUDC-101]
The following applies: top dose 5.12 µM; top dose inferred. As to the method: (§1)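 Human cancer cell lines in 384-well plates, medium with 10% serum, drug for 72 h over a 256-fold dose range (nine 2-fold or five 4-fold steps up to the top dose). Adherent lines were fixed and stained with the nucleic acid dye Syto60, suspension lines read with resazurin; signal relative to control wells, capped at 0 and 100%. One two-parameter sigmoid per drug and line, fitted in a mixed model over all curves with the slope shared within a line.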

Compound in test [2]: CC(C)(C)c1cc(NC(=O)Nc2ccc(-c3cn4c(n3)sc3cc(OCCN5CCOCC5)ccc34)cc2)no1 [AC220]
The settings on record: top dose 1.024 µM; top dose inferred. As to the method:
as §1

Compound in test [3]: COc1cc(F)c(F)c(Nc2ccc(I)cc2F)c1NS(=O)(=O)C1(C[C@H](O)CO)CC1 [RDEA119]
The following applies: top dose 5 µM, top dose inferred. As to the method:
as §1

Compound in test [4]: Fc1cc(-c2ccnc(Nc3ccc(-n4cnc(N5CCOCC5)n4)cc3)n2)cc(N2CCOCC2)c1 [JNK-9L]
The following applies: top dose 5.12 µM; top dose inferred. As to the method: as §1

Compound in test [5]: NCC(=O)Nc1ccc(-n2nc(C(F)(F)F)cc2-c2ccc3c(ccc4ccccc43)c2)cc1 [OSU-03012]
The following applies: top dose 16 µM; top dose inferred. As to the method: as §1

Compound in test [6]: O=c1[nH]cc(F)c(=O)[nH]1 [5-Fluorouracil]
The following applies: top dose 32 µM; top dose inferred. As to the method: as §1

Compound in test [7]: OC[C@H](Cc1ccccc1)Nc1nc(Oc2ccc3c(c2)CCC3)nc2c1ncn2Cc1ccc(-c2ccccc2)cc1 [QS11]
The settings on record: top dose 10.24 µM. As to the method:
as §1

As to ROS-50 (B-cell leukaemia, suspension), the AUC amounted to 0.708 in test [1]; 0.979 in test [2]; 0.985 in test [3] (screen: GDSC drug entry 1014); 0.982 in test [3] (screen: GDSC drug entry 1526); 0.704 in test [4]; 0.918 in test [5]. Further, the AUC in test [6] amounted to 0.857; in test [7] it was 0.96. Also, the IC50 was 1470 nM in test [1]; greater than 1020 nM in test [2]; greater than 5000 nM in test [3] (screen: GDSC drug entry 1014); greater than 5000 nM in test [3] (screen: GDSC drug entry 1526); 1430 nM in test [4]; greater than 16000 nM in test [5]. Further, the IC50 was greater than 32000 nM in test [6] and greater than 10200 nM in test [7].
On to RPMI-2650 (head and neck, adherent), for which the AUC in test [1] is 0.45; in test [2], 0.973; in test [3] (screen: GDSC drug entry 1014), 0.894; in test [3] (screen: GDSC drug entry 1526) it was 0.974; in test [4], 0.421; in test [5], 0.578. Besides, the values for the AUC in test [6] and in test [7] were 0.836 and 0.9, respectively. Besides, the IC50 in test [1] was 231 nM; in test [2] it was greater than 1020 nM; in test [3] (screen: GDSC drug entry 1014), greater than 5000 nM; in test [3] (screen: GDSC drug entry 1526), greater than 5000 nM; in test [4], 191 nM; in test [5], 1670 nM. For the same cell line, the values for the IC50 in test [6] and in test [7] were 23800 nM and greater than 10200 nM, respectively.
As to “RPMI-6666 (Hodgkin lymphoma, suspension)”, the AUC in test [1] turned out to be 0.287; in test [2], 0.921; in test [3] (screen: GDSC drug entry 1014), 0.922; in test [3] (screen: GDSC drug entry 1526), 0.929; in test [4] it was 0.459; in test [5], 0.711. In addition, the AUC in test [6] came out at 0.335; in test [7], 0.966. Besides, the IC50 in test [1] is 70.2 nM; in test [2], greater than 1020 nM; in test [3] (screen: GDSC drug entry 1014), greater than 5000 nM; in test [3] (screen: GDSC drug entry 1526) it was greater than 5000 nM; in test [4] it was 242 nM; in test [5] it was 4520 nM. Moreover, the results for the half-maximal inhibitory concentration (IC50) in test [6] and in test [7] were 631 nM and greater than 10200 nM, respectively.
RPMI-7951 (melanoma, adherent): the AUC was determined as 0.48 in test [1]; 0.96 in test [2]; 0.634 in test [3] (screen: GDSC drug entry 1014); 0.625 in test [4]; 0.786 in test [5]; 0.86 in test [6]. In test [7], the AUC was 0.609. The half-maximal inhibitory concentration (IC50) was 283 nM in test [1]; greater than 1020 nM in test [2]; 723 nM in test [3] (screen: GDSC drug entry 1014); 699 nM in test [4]; 6690 nM in test [5]; 25600 nM in test [6]. In test [7], the concentration for half-maximal inhibition (IC50) came to 1270 nM.
For the cell line RPMI-8226 (myeloma, suspension), the AUC in test [1] worked out at 0.579; in test [2], 0.975; in test [3] (screen: GDSC drug entry 1014), 0.799; in test [3] (screen: GDSC drug entry 1526) it was 0.868; in test [4], 0.696; in test [5], 0.77. The AUC in test [6] was found to be 0.374; in test [7], 0.852. For the same cell line, the IC50 in test [1] was 511 nM; in test [2], greater than 1020 nM; in test [3] (screen: GDSC drug entry 1014), 2040 nM; in test [3] (screen: GDSC drug entry 1526) it was 3600 nM; in test [4], 1050 nM; in test [5] it was 5320 nM. Further, the results for the half-inhibitory concentration (IC50) in test [6] and in test [7] were 946 nM and 6380 nM, respectively.
Turning to “RPMI-8402 (T-cell lymphoblastic leukaemia, suspension)”, the AUC stood at 0.175 in test [1]; 0.94 in test [2]; 0.991 in test [3] (screen: GDSC drug entry 1014); 0.977 in test [3] (screen: GDSC drug entry 1526); 0.55 in test [4]; 0.637 in test [5]. In addition, the AUC is 0.628 in test [6] and 0.929 in test [7]. For the same cell line, the half-inhibitory concentration (IC50) in test [1] is 42.1 nM; in test [2] it was greater than 1020 nM; in test [3] (screen: GDSC drug entry 1014), greater than 5000 nM; in test [3] (screen: GDSC drug entry 1526), greater than 5000 nM; in test [4], 427 nM; in test [5], 2240 nM. The values for the IC50 in test [6] and in test [7] were 4230 nM and greater than 10200 nM, respectively.
Take “RPMI-8866 (chronic myeloid leukaemia, suspension)”: the AUC in test [1] amounted to 0.318; in test [2], 0.988; in test [3] (screen: GDSC drug entry 1014) it was 0.889; in test [3] (screen: GDSC drug entry 1526), 0.964; in test [4], 0.673; in test [5], 0.783. Also, the AUC in test [6] was 0.47; in test [7], 0.968. In addition, the IC50 is 104 nM in test [1]; greater than 1020 nM in test [2]; 4990 nM in test [3] (screen: GDSC drug entry 1014); greater than 5000 nM in test [3] (screen: GDSC drug entry 1526); 933 nM in test [4]; 6220 nM in test [5]. The IC50 in test [6] is 1670 nM; in test [7], greater than 10200 nM.
